Counter-ions that a name gives are not always drawn. ± gives the standard deviation of the averaged measurements. The list shows a part of the results. Single values are uncertain, as repeats are few or missing.
Test system: Escherichia coli W3110
Assay: planktonic growth (OD600) relative to untreated control; higher = more growth
Conditions: 10 µM; 20-24 h; 30 °C; TB
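Further: stationary (unshaken) cultures in 96-well plates, started at OD600 0.05 from mid-exponential cells, with compounds supplied from DMSO stocks.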

SMILES	planktonic growth [%]
CC(C)[C@H]1CC[C@H](C(=O)N[C@H](Cc2ccccc2)C(=O)O)CC1 [Nateglinide]	96
CCCCOc1ccc(OCCCN2CCOCC2)cc1 [Pramoxine hydrochloride]	103
O=C(NCC1CCCCN1)c1cc(OCC(F)(F)F)ccc1OCC(F)(F)F (stereo not drawn) [Flecainide acetate]	98
CC1CCc2cc(F)cc3c(=O)c(C(=O)O)cn1c23 (stereo not drawn) [Flumequine]	6
CCN1CCCC1CNC(=O)c1cc(S(=O)(=O)CC)c(N)cc1OC (stereo not drawn) [Amisulpride]	99
Nc1nc(N)nc(-c2cc(Cl)ccc2Cl)n1 [Irsogladine maleate]	96
COc1cc(N)c(Cl)cc1C(=O)NC1CCN(Cc2ccccc2)CC1 [Clebopride maleate]	94
O=C(c1ccc(OCCN2CCCCC2)cc1)c1c(-c2ccc(O)cc2)sc2cc(O)ccc12 [Raloxifene hydrochloride]	102
NS(=O)(=O)c1cc2c(cc1C(F)(F)F)NC(Cc1ccccc1)NS2(=O)=O (stereo not drawn) [Bendroflumethiazide]	92
CC(CN1c2ccccc2Sc2ccccc21)N(C)C (stereo not drawn) [Promethazine hydrochloride]	108
CCOC(=O)C1=C(C)NC(C)=C(C(=O)OC)C1c1cccc([N+](=O)[O-])c1 (stereo not drawn) [Nitrendipine]	95
CCn1cc(C(=O)O)c(=O)c2cc(F)c(N3CCNCC3)cc21 [Norfloxacin]	20
CN(C)CCC(c1ccc(Cl)cc1)c1ccccn1 (stereo not drawn) [Chlorpheniramine maleate]	93
COc1cc(N)c(Cl)cc1C(=O)NC1CCN(CCCOc2ccc(F)cc2)CC1OC (stereo not drawn) [Cisapride]	102
COC1=CC(=O)C[C@@H](C)[C@]12Oc1c(Cl)c(OC)cc(OC)c1C2=O [Griseofulvin]	94
O=C(O)CNC(=O)C(CS)Cc1ccccc1 (stereo not drawn) [Thiorphan]	106
Cc1onc(-c2ccccc2)c1C(=O)N[C@@H]1C(=O)N2[C@@H]1SC(C)(C)[C@@H]2C(=O)O [Oxacillin sodium]	97
CN(C)CCCC1(c2ccc(F)cc2)OCc2cc(C#N)ccc21 (stereo not drawn) [Citalopram Hydrobromide]	99
CCCC(CCC)C(=O)O [Valproic acid]	87
CC(C)(C)NCC(O)c1ccc(O)c(CO)c1 (stereo not drawn) [Salbutamol]	93
Cn1c(=O)c2c(ncn2C)n(C)c1=O [Caffeine]	96
Cc1c(OCC(F)(F)F)ccnc1C[S+]([O-])c1nc2ccccc2[nH]1 (stereo not drawn) [Lansoprazole]	98
COC(=O)Nc1nc2cc(C(=O)c3ccc(F)cc3)ccc2[nH]1 [Flubendazol]	96.5 ± 0.71

From the supplement of paper PMC7580552
